Screen size: about 50,000 compounds; about 800 (1.6%) showed an effect of 50% or more. The list shows a part of the results.

This assay addresses Bcl-2-like protein 10 (Homo sapiens) (UniProt Q9HD36). Briefly: Phenotype converters, Bcl-B/TR3 peptide binding displacement, primary biochemical FP (AID 1240).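 Note: 0% = Bcl-B with tracer peptide and DMSO and 100% = tracer peptide lacking Bcl-B.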 The note with it: GST-Bcl-B / FITC-TR3 peptide fluorescence polarization; stronger effect = higher value; compound at 3.75 mg/L. For orientation: In fluorescence polarisation assays a small probe gives low polarisation when free and higher when bound to something large.
UniProt Q9HD36, sequence (Q9HD36 whole entry, looked up): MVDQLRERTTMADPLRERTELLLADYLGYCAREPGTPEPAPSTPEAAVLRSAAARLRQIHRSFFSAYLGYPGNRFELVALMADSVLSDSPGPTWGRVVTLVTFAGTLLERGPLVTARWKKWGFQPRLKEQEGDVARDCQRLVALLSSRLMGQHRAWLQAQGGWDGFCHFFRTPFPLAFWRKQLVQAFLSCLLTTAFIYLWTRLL
Take `O=C(O)c1ccc(NC(=O)c2ccccc2NC(=O)c2ccccc2Cl)cc1`: the displacement came out at 11.9%.

Regarding `O=C(COC(=O)c1ccccc1Nc1ccccc1)c1cccc([N+](=O)[O-])c1`, the displacement was -20.8%.

Consider `CC1CC(Nc2ccccc2)c2ccccc2N1C(=O)Nc1cccc(Cl)c1` (stereo not drawn), for which the displacement was determined as 13.7%.

In the case of `COc1cc(/C=N/NC(=O)COc2cccc(C)c2)ccc1OC(=O)c1ccco1`, the displacement turned out to be 7.2%.

As for `Clc1ccc(CN2CCN(/N=C/C=C\c3ccco3)CC2)cc1`, the displacement was -6.7%.

In the case of `NS(=O)(=O)c1ccc(N=Cc2ccc[nH]2)cc1`, the displacement was 0.3%.

Take `O=C1C2C3C=CC(C3)C2C(=O)N1/N=C/c1ccc2c(c1)OCO2` (stereo not drawn): the displacement came out at 5.8%.

Take `CCOC(=O)C(C#N)C(=O)c1ccc(N2C(=O)c3ccccc3C2=O)cc1` (stereo not drawn): the displacement came to 11.8%.

With `COc1ccccc1NN=c1c(=O)c2ccccc2c1=O`, the displacement is 31.9%.

Consider `Cc1ccccc1OCC(=O)Nc1cccc(NC(=O)c2ccco2)c1`, for which the displacement was 6.7%.

For `COCCOC(=O)C1=C(C)NC(=O)CC1c1ccccc1OCc1ccccc1` (stereo not drawn), the displacement worked out at 14.1%.

As for `O=[N+]([O-])c1cc(/C=N/N2CCN(c3ccccc3)CC2)ccc1Cl`, the displacement is -6.1%.

For `CCN(CC)c1ccc(/C=N/NC(=O)c2nonc2N)c(OCc2ccc(Cl)cc2)c1`, the displacement was -2.6%.

On to `COc1ccc2c(c1OC)C(=O)OC2Nc1cc(C)ccc1O` (stereo not drawn), for which the displacement was -5.3%.

In the case of `CN(C)C(=O)c1ccc(CN2CCc3ccccc3C2)cc1`, the displacement was -15%.

`O=C(NCCO)C(=O)Nc1ccc(Oc2ccccc2)cc1`: the displacement stood at 3.9%.

As to `COc1ccc(N2Cc3ccc(C(=O)NN)cc3C2)cc1`, the displacement is -29.2%.

With `COc1ccc(OC)c(C2NC(=S)NC(C)=C2C(=O)Nc2ccc(C)cc2)c1` (stereo not drawn), the displacement was determined as 5.7%.

In the case of `Cc1ccc(C=Nc2ccc3c(c2)Cc2cc([N+](=O)[O-])ccc2-3)cc1`, the displacement was -27.4%.

As to `O=C1CCCC2=C1C(c1ccc([N+](=O)[O-])cc1)C1C(=O)c3ccccc3C1=N2` (stereo not drawn), the displacement is -0.3%.

In the case of `Cc1ccc(NC(=O)CSc2nc3ccc(N)cc3s2)cc1Cl`, the displacement is -27.7%.

Consider `COCCOC(=O)c1c(C)oc2ccc(NS(=O)(=O)c3ccc(C)cc3)cc12`, for which the displacement was 4.1%.

Consider `Cc1ccccc1NC(=O)c1c(NC(=O)c2cccc(Br)c2)sc2c1CCCC2`, for which the displacement was -14.5%.

For the compound `CC(C)CC1C(C#N)=C(N)Oc2n[nH]c(-c3ccccc3)c21` (stereo not drawn), the displacement was -7.9%.

For `C(=N\n1cnnc1)/c1cn(CCOc2ccc(C3CCCCC3)cc2)c2ccccc12`, the displacement is -10.2%.

For the compound `CC(NS(=O)(=O)N(C)C)c1ccc(-c2ccccc2)cc1` (stereo not drawn), the displacement came to 9.1%.

Take `CC1CCN(c2nc(-c3ccccc3)nc3ccccc23)CC1`: the displacement was found to be 1.4%.

As for `COc1cc(/C=C2/SC(=S)N(CC(=O)O)C2=O)ccc1OCc1ccccc1F`, the displacement was -20%.

Regarding `NC(=O)/C(=C\c1ccc2c(c1)OCO2)NC(=O)c1ccco1`, the displacement was -10.5%.

For `Cc1ccc(NC2CC(C)N(C(=O)CN3C(=O)c4ccccc4C3=O)c3ccc(C)cc32)cc1` (stereo not drawn), the displacement was 1.4%.

`CCCCOc1cccc(C(=O)Nc2ccc(N3CCN(C(C)=O)CC3)cc2)c1`: the displacement stood at 0.6%.

For `CCCC1=NN2C(=N)/C(=C/c3ccc4c(c3)OCO4)C(=O)N=C2S1`, the displacement was -6%.

For `O=C(Nc1nc2ccc(Cl)cc2s1)c1ccccc1[N+](=O)[O-]`, the displacement is -4.1%.

Regarding `CC(C)Oc1ccc(C2CC(=O)N(c3cccc(/C=C/C(=O)O)c3)C2=O)cc1` (stereo not drawn), the displacement was -2.2%.

Consider `COC(=O)c1c(N)sc2c1CCCCCC2`, for which the displacement was -12.3%.

Turning to `O=c1oc(-c2cccc(F)c2)nc2c1cnn2-c1ccccc1`, the displacement was determined as 0.8%.

Consider `C=CCC1(N(C(C)=O)c2ccccc2C)CCCCC1`, for which the displacement is -2.8%.

Turning to `CCOC(=O)c1ccc(-n2c(-c3ccco3)nc3ccccc3c2=O)cc1`, the displacement was found to be 4.6%.

Regarding `Cc1ccc(NC(=O)CN(c2ccc(Br)cc2)S(C)(=O)=O)cc1`, the displacement was -1.2%.

As for `CCCOC(=O)Nc1ccc(S(=O)(=O)Nc2ncccn2)cc1`, the displacement is 11.6%.

Consider `Cn1c(=O)c2c(nc(Sc3ncn[nH]3)n2C)n(C)c1=O`, for which the displacement is 19.4%.

As for `CCN1C(=O)/C(=C/c2c(Cl)cccc2Cl)SC1=S`, the displacement was determined as 0.8%.

Consider `CC1=NN(C(=O)c2ccccc2Cl)C(O)(C(F)(F)F)C1` (stereo not drawn), for which the displacement is -7.4%.

For `CCOC(=O)c1cnn2c(C)cc(-c3ccccc3)nc12`, the displacement was found to be 5.6%.

With `O=C(c1ccc(-c2ccccc2)cc1)N1CCN(C2CC3CCC2C3)CC1` (stereo not drawn), the displacement was -11.5%.

On to `CC(=O)N(C)c1ccc(NC(=O)c2ccccc2[N+](=O)[O-])cc1`, for which the displacement was -4%.

`Nc1ccc2nc(Sc3nc4ccc([N+](=O)[O-])cc4s3)sc2c1`: the displacement was -15.1%.

For `Cc1cc(C)c(NS(=O)(=O)c2cccc3c2C(=O)c2ccccc2C3=O)c(C)c1`, the displacement is -2.4%.

In the case of `COc1cc(C2C(C(=O)OCc3ccccc3)=C(C)NC(C)=C2C(=O)OCc2ccccc2)ccc1O`, the displacement is -15%.

For the compound `O=C(NCc1cccnc1)c1ccc(C#Cc2ccccc2)cc1`, the displacement is -5.9%.

On to `Cc1cc(C)c(N=Cc2c(C)[nH]n(-c3ccccc3)c2=S)c(C)c1`, for which the displacement amounted to 13.7%.

Regarding `COc1ccc(C2CC(=O)C3=C(C2)Nc2ccccc2NC3c2ccc([N+](=O)[O-])cc2)cc1OC` (stereo not drawn), the displacement was 1.1%.

With `CCc1cc(=O)oc2cc(OCC(=O)OC(C)C)ccc12`, the displacement turned out to be 0%.

With `NS(=O)(=O)c1ccc(NC(=S)NC(=O)c2sc3cc(F)ccc3c2Cl)cc1`, the displacement was 12.7%.

Turning to `COc1ccc(OC)c(C2/C(=C(\O)c3ccccc3)C(=O)C(=O)N2c2cccnc2)c1` (stereo not drawn), the displacement came to 16.5%.

Turning to `CCCCC1(O)CC(c2ccc(OC)cc2)NC(c2ccc(OC)cc2)C1C` (stereo not drawn), the displacement was determined as 6.6%.

For the compound `CC(=O)N1CCN(c2ccc([N+](=O)[O-])cc2Cl)CC1C` (stereo not drawn), the displacement was 15%.

For `COc1ccc(/C(O)=C2/C(=O)C(=O)N(CCCCCC(=O)O)C2c2ccc(F)cc2)cc1` (stereo not drawn), the displacement was -17.7%.

Take `Cc1ccccc1OCCCN1CCC(C)CC1`: the displacement is 15.1%.

Take `Cc1ccc(Nc2nc(-c3ccc(S(=O)(=O)N4CCOCC4)cc3)cs2)cc1Cl`: the displacement is -2.9%.

For `CCOC(=O)C1(C)C(Br)=C(O)C(=O)N1c1ccccc1` (stereo not drawn), the displacement turned out to be 1.3%.

For `Cc1ccc(NC(=O)COc2cccc(Cl)c2)cc1[N+](=O)[O-]`, the displacement is -2%.

Consider `O=C1Nc2ccc(Br)cc2C1=Cc1nc2ccccc2c(=O)n1-c1ccc(C(=O)O)cc1`, for which the displacement was -3.8%.

In the case of `Nc1nnc(SCC(=O)Nc2ccccc2[N+](=O)[O-])s1`, the displacement turned out to be 11.2%.

With `COc1cc(/C=C2\SC(=S)N(C3CCCCC3)C2=O)ccc1OC(=O)c1cccc(C)c1`, the displacement amounted to 3%.

Consider `CSC1=NC(c2ccccc2)C(C(=O)Nc2ccccc2)=C(C)N1` (stereo not drawn), for which the displacement is -17.4%.

Turning to `CCCCNC(NCCCC)=C(S(=O)(=O)CC)S(=O)(=O)CC`, the displacement amounted to 0.7%.

On to `CC(=O)Oc1ccc(/C=C2/SC(=S)N(c3ccccc3)C2=O)cc1`, for which the displacement is -2.6%.

The values are drawn from PubChem BioAssay AID1240 (Sanford-Burnham Center for Chemical Genomics, 2008).
